This passage reports self-cleavage results from the RNAGym collection of RNA variant scans (doi:10.1093/nar/gkz1192).

Read counts are not given, so values of variants with three or more changes are uncertain.

The labels stand for the following.
B1: CPEB3 Ribozyme (parent)
chain: UAACAGGGGGCCACAGCAGAAGCGUUCACGUCGCAGCCCCUGUCAGAUUCUGGUGAAUCUGCGAAUUCUGCUGUAUAUCUC

In this data set the parent is B1. Nature of the data set: self-cleavage, relative activity (ratio to wild type); higher = more cleavage; in vitro, sequencing. Summed up: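 CPEB3 self-cleaving ribozyme mutant libraries were made by rounds of error-prone PCR, barcoded, and transcribed in vitro with T7 RNA polymerase for 5 hours at 37°C. Cleavage occurred during transcription and a 15 min DNase I step before EDTA stop. RNAs were reverse transcribed with template switching and Illumina-sequenced, with DNA sequencing mapping barcodes to variants. Relative activity is the variant's cleaved/total read fraction divided by wild type's (minimum 5 reads), averaged across three batches.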
For the variant UAACAGCGGGCCACAGCAGAAGCGUUCACGUCGCAGCCCCUGCCAGGUUCUGGUGAAUCUGCGAAUUCUGCUGUAUAUCUC [G7C U43C A47G], the self-cleavage was 0.23.
In the case of UAACAGCGGGCCACAGCAGAAGUGUUCACGACGCAGCCCCCGUCAGAUUCUGGUGAAUCUGCGAAUUCUGCUGUAUAUCUC [G7C C23U U31A U41C], the self-cleavage was 0.36.
Take UAACAGUGGGCCACAGCAGAAGCGUUCACGUCGCGGCCCCUGUCAGAUUCUGGAGAAUCUGCGAAUUCUGCUGCGUAUCUC [G7U A35G U54A U74C A75G]: the self-cleavage was 0.12.
As for UAACAGUGGGCCACAGCAGAAGCGUUCACGUCGCAGCCCCCGUCAGAUUCCGGUGGAUCUGCGAAUUCUGUUGUAUAUCUC [G7U U41C U51C A56G C71U], the figure is 0.1; as for UAACAGUGGGCCACAGCAGGAGCGUUCACGUCGCUGCCCCUGUCAGAUUCUGGAGAAUCUGCGAAUUCUGCUGUAUAUCUC [G7U A20G A35U U54A], 0.07; as for UAACAGUGGGUCACAGCAGAAGCGUUCACGUCGCAGCCCCCGUCAGAUUCUAGUGAAUCUGCGAAUUCUGCCGUAUAUCGC [G7U C11U U41C G52A U72C U80G], 0.09.
On to UAACAGUGGGCCACAGCAGAAGCGUUCACGACGCAGCCCCUGUCAGAUUCUGGUGGAUCUGCGAAUUCUGCCGUAUAUCUC [G7U U31A A56G U72C], for which the self-cleavage was 0.09.
Regarding UAACAGUGGGCCACAGCAGAAGCGUUCACGUCGCAGCCCCUGUCAGAUUCUGGUGGAUCUGCGACUUCUGCUGUAUACCUC [G7U A56G A65C U78C], the self-cleavage was determined as 0.07.
For UAACAGCGGGCCACAUCAGAAGCGUUCACGUCGCAGCCCCUGUCAGAUUCUGGUGAAUCUGCGCAUUCUGCUGUAUAUCUC [G7C G16U A64C], the self-cleavage is 0.1.
To UAACAGUGGGCCACAGCAGAAGUGUUCACGUCGCAGCCCCUGUCAGUUUCUAGUGAAUCUGCGAAUUCUGCAGUAUAUCUC [G7U C23U A47U G52A U72A] belongs 0.16; to UAACAGUGGGCCCCAGCAGAAGCGUUCACGUCGCAGCCGCUGUCUGAUUCUGGUGAAUCUGCGAAUUCUGCUGUAUAUCUC [G7U A13C C39G A45U], 0.07.
Take UAACAGUGGGCCACAGCAGAAGCGUUCUCGUCGCAGCCCCUGUCAGAUUCUGGUGUAUCUGUGAAUUCUGCUGUAUUUCUC [G7U A28U A56U C62U A77U]: the self-cleavage turned out to be 0.09.
Take UAACAGUGGGCCACGGCAGAUGCGUUCACGUCGCAGCCCCUGUCAGACUCUGGUGAAUCUGCGAAUUAUGCUGUAUAUCUC [G7U A15G A21U U48C C68A]: the self-cleavage worked out at 0.05.
Turning to UAACAGUGGGCCACGGCAGAAGCGUUCACGUCGCAGCCCCUAUCAGAUUCGGGUGAACCUGCGAAUUCUGCUGUAUACCUC [G7U A15G G42A U51G U58C U78C], the self-cleavage came to 0.04.
For UAACAGUGGGCCACAGCAGAAGCGUUCACGACGCAGCCCCUGUCAGACUCUGGUGAAUCUGCGGAUUCUGCUGUAUAUCUC [G7U U31A U48C A64G], the self-cleavage is 0.06.
For UAACAGCGGGCCACAGCAGAAGCGUACACGUCGCACCCCCUGUCAGAUUCCGGUGAAUCUGCGAAUUCUGCUGUAUAUCUC [G7C U26A G36C U51C], the self-cleavage is 0.13.
As to UAACAGUGGGCCACAGCAGGAGCGUCCUCGUCGCAGCCCCUGUCAGAUUCUGGUGAAUCUGCGAAUUCUGCUGUAUAUCUC [G7U A20G U26C A28U], the self-cleavage was 0.17.
UAACAGUGGGCCACGGCAGAAGCGUUCUCGUCGCAGCCCCUGUCGGAUUCUGGCGAAUCUGCGAACUCAGCUGUAUAUCUC [G7U A15G A28U A45G U54C U66C U69A]: the self-cleavage was 0.04.
Turning to UAACAGCGGGCCACAGCAGAAGCUAUCACGUCGCAGCCCCUGUCAGAUCCUGGUGAAACUGCGAAUUCUGCUGUAUAUCUC [G7C G24U U25A U49C U58A], the self-cleavage was found to be 0.17.
As for UAACAGUGGGCCACAGCAGAGGCGUUCACGUCGCAGCCCCCGUCAGAUUCUGGUGGAUCUGCGGAUUCUGCUGUAUGUCCC [G7U A21G U41C A56G A64G A77G U80C], the self-cleavage was 0.05.
For the variant UAACAGCGGGCCACAGCAGAAGCGUUCACCUCGCAGCCCCUGUCAGAUUCUGGUGGAUCUGCGAAUUCUGCUGUAUAUCUC [G7C G30C A56G], the self-cleavage turned out to be 0.23.
As to UAACAGUGGGCCACAGCAGAAGCGUUCACGCCGCAGCCCCUUUCAGACUCUGGUGAAUCUGCGAAUUCUGCUGUAUAUCUC [G7U U31C G42U U48C], the self-cleavage amounted to 0.06.
Regarding UAACAGUGGGCCACAGCAGGAGCGUUCACGUCGCUGCCCCUGUCAGAUUCUGGUGAAUCUGCGAAUUCUGCUGUAUAUCCC [G7U A20G A35U U80C], the self-cleavage amounted to 0.06.
Regarding UAACAGUGGGCCACAGCAGUAGCGUUCACGUCGCAGCCCAUGUCAGAUUCUGGUGAAUCUGCGAAUUCUGCUGUAUAUCUC [G7U A20U C40A], the self-cleavage amounted to 0.06.
For UAACAGUGGGCCACGGCAGAAGCGUUCACGUCGCAGCCCCCGUCAGAUUCUGGAGAGUCUGCGAAUUCUGCUGUAUAUCUC [G7U A15G U41C U54A A57G], the self-cleavage came out at 0.3.
In the case of UAACAGCGGGCCACAGUAGAGGCGUCCACGUCGCAGCCCCUGUCAGAUUCUGGUGAAUCUGCGAAAUCUGCUGUAUAUCUC [G7C C17U A21G U26C U66A], the self-cleavage is 0.23.
To UAACAGCGGGCCACAGCAGAAGCGUUCACGUCGCAGCCCCUGACAGAUUCUGGUGGACCUGCGAAUUCUGCUGUAUAUCUC [G7C U43A A56G U58C] belongs 0.05; to UAACAGUGGGCCACAGCAGAACCGUACACGUCGCAGCCCCAGUCAGAUUCUGGUGAAUCUGCGAAUUCUGCUGUAUAUCUC [G7U G22C U26A U41A], 0.06.
Regarding UAACAGUGGGCCACAGCAGAAGCGUUCACGUCGCAGCCCCUGUCAGAUUCUGGUGGGUCUGCGAAUUCCGCUGUAUACCUC [G7U A56G A57G U69C U78C], the self-cleavage came to 0.09.
As for UAACAGCGGGCCACAGCAGAAGCGUUCACCUCGCAGCCUCUGCCAGAUUCUGGUGAAUCAGCGAAUUCUGCUGCGUAUCUC [G7C G30C C39U U43C U60A U74C A75G], the figure is 0.06.
For UAACAGUGGGCCACAGCAGAAGCGUUCACGUCGCUGCUCCUGUCAGAUUCUGGUGAAUCUGCGAACUCUGCUGUAUAUCUC [G7U A35U C38U U66C], the self-cleavage worked out at 0.06.
UAACAGUGGGCCACAGCAGAGGCGUUCACGUCACAGCCCCUGUCAGAUUCUGGUGAAUCUGCGAAUUCUGCCGUAUAUCUC [G7U A21G G33A U72C]: the self-cleavage was 0.22.
Consider UAACAGUGGGCCACAGCAGAAGCUUUCACGUCGCAGCCCCUGUCAGAUUCUGGUGAAUCUGCGAAUUCCGCUGUAUUUCUC [G7U G24U U69C A77U], for which the self-cleavage amounted to 0.11.
UAACAGUGGGCCACAGCAGAAGCGUUCGCGUCGCAGCCCCUGUCGGAUUCUGGCGAAUCUGCGAAUUCUGCUGUAUAUCAC [G7U A28G A45G U54C U80A]: the self-cleavage was determined as 0.2.
